According to ChEMBL document CHEMBL1157539, “Thousands of chemical starting points for antimalarial lead identification” (Nature, 2010):
In all, about 13,000 compounds were measured (“IFI”: median about 4, highest 2% from about 17 on). Some of the results follow.

Assay: GSK_TCMDC: Inhibition Frequency Index (IFI). The number of non-kinase HTS assays where a compound showed > 50 % inhibition, expressed as a percentage of the number of such assays in which the compound was tested (-0 is zero)
Format: functional

Row | Structure (SMILES) | IFI
1 | O=C(Nc1ccc2c(c1)CCCN2S(=O)(=O)c1cccs1)c1cc([N+](=O)[O-])ccc1Cl | 10.3%
2 | O=C(CSc1nnc(-c2ccccc2Br)[nH]1)c1c[nH]c2ccccc12 | 0.69%
3 | Cc1ccc(S(=O)(=O)NC(=N)NC(N)=O)cc1 | -0%
4 | O=C(NCCCCN1CCC(c2ccc3ccccc3c2O)CC1)c1ccc(-c2ccc(Cl)cc2)cc1 | 15.1%
5 | CNCCNCc1ccc(-c2ccc(-c3nc4cccc(C)c4[nH]3)s2)cc1 | 7%
6 | N#Cc1cccc(Nc2ncc3c(-c4cccc(NC(=O)Cc5cccc(Cl)c5)c4)c[nH]c3n2)c1 | 1.53%
7 | Cc1nc(-c2cccc(C(=O)Nc3cnc4ccccc4c3)c2)no1 | 2.27%
8 | CC(Oc1ccc(C(=O)c2ccc(F)cc2)cc1)C(=O)N1CCc2ccccc21 (stereo not drawn) | 1.55%
9 | O=C(NCCN1CCCC1)c1cccc(-c2ccc(-c3nc4cc(C(F)(F)F)ccc4[nH]3)cc2)c1 | 5.31%
10 | CCOc1ccc(-c2nonc2NC(=O)c2ccc(OC(C)C)cc2)cc1OCC | 0%
11 | NS(=O)(=O)c1cccc(Nc2nccc(-c3cnn4ncccc34)n2)c1 | 9.49%
12 | O=C(NCCc1ccc(O)cc1)n1c2ccccc2c2ccccc21 | 1.42%
13 | Cc1noc(C)c1-c1ccc2c(Nc3ccccc3C(C)(C)C)c(C(=O)NC3CCCC3)cnc2c1 | 13.8%
14 | COc1cc(C(=O)NCCCN2CCN(c3cc(Cl)ccc3OC)CC2)ccc1-c1nc2cc(Cl)c(Cl)cc2[nH]1 | -0%
15 | O=C(N[C@@H](Cc1ccccc1)[C@H](O)CNC1CCOCC1)c1cc(C2CCCC2)cc(N2CCCCS2(=O)=O)c1 | 1.5%
16 | CS(=O)(=O)c1ccc2c(c1)CCN(CCC1CCC(NC(=O)C(=Cc3ccc(Cl)cc3Cl)c3ccc(-c4ccccc4)cc3)CC1)CC2 (stereo not drawn) | 5.48%
17 | CCc1cc2c(cc1OCCN(C)C)N(C(=O)Nc1ccc(-c3ccncc3)c(Cl)c1)CC2 | 5.63%
18 | CCn1c(Sc2ccc([N+](=O)[O-])c(C#N)c2)nnc1-c1ccc(Cl)cc1 | 3.4%
19 | O=C(C1CCN(c2nnnn2-c2ccccc2)CC1)N1CCc2ccccc2C1 | 0.71%
20 | CCCCCCN1CCCN(Cc2ccc(C(=O)Nc3ccc(C(C)(C)C)cc3)cc2)CC1 | 15.5%
21 | CC(C)(C)c1ccc2oc(=O)n(C3CCN(C(=O)c4ccc([N+](=O)[O-])o4)CC3)c2c1 | 2.38%
22 | Cc1noc(C)c1-c1ccc2c(Nc3cccc4c3-c3ccccc3C4=O)c(C(=O)NCc3ccccc3I)cnc2c1 | 0%

Row | Structure (SMILES) | IFI
23 | Cc1ccc(-c2csc(C)n2)c(C)c1 | 0.72%
24 | CN1CCC(c2cc3c(cc2Br)CCN3C(=O)Nc2ccc(-c3ccncc3)c(Cl)c2)CC1 | 4.48%
25 | O=C(Nc1cccc(F)c1)N(Cc1ccc(-c2cccc(CN3CCNCC3)c2)cc1)C1CCN(Cc2ccccc2)CC1 | 3.7%
26 | c1ccc(-c2nnc(-c3ccccn3)nc2NC2CCCCC2)cc1 | 8.11%
27 | O=C(NC1CCCCN(Cc2ccccc2O)C1)c1ccc(-c2ccccc2)cc1 (stereo not drawn) | 4.08%
28 | O=C1CCCC1Sc1nc2ccccc2c(=O)n1-c1ccc(Cl)c(Cl)c1 (stereo not drawn) | 2.04%
29 | CC1(C)CN(CCC2CCC(NC(=O)/C=C/c3ccccc3F)CC2)Cc2ccc(C#N)cc21 (stereo not drawn) | 4.38%
30 | CN1CCCN(Cc2cccc(-c3ccc(NC(=O)c4cccc(Cl)c4)cc3)c2)CC1 | 5.71%
31 | Fc1ccc2[nH]c(-c3ccc(-c4cccc(CN5CCN(c6ccncc6)CC5)c4)cc3)nc2c1 | 18.1%
32 | O=C(Nc1cccc(CN2CCN(Cc3ccc(O)cc3)CC2)c1)c1ccc(Cl)c(Cl)c1 | 7.38%
33 | COc1ccc(C=NN=c2cc(C)[nH]c3ccccc23)c2ccccc12 | 3.57%
34 | COc1ccc(O)c(C(=O)NCCc2ccc(OC)c(-c3ccc(C(C)(C)C)cc3)c2)c1 | 1.46%
35 | COc1cc(NC(=O)Nc2ccnc3ccccc23)cc(OC)c1 | 2.34%
36 | COc1ccc2nccc([C@@H](O)CN3CCC(NCc4cc5ccccc5o4)CC3)c2c1 | 3.45%
37 | COc1ccc(Br)cc1/C=C/C(=O)Nc1cccc(C2CCCN(C)C2)c1 (stereo not drawn) | 3.45%
38 | CN(Cc1ccc(C#N)cc1)C1CCN(c2cc(NC(=O)c3ccc(F)cc3)ccn2)CC1 | -0%
39 | CN1CCN(c2ccc3nccc(CCN4CCC(NCc5ccc6c(n5)NC(=O)CO6)CC4)c3n2)CC1 | 3.97%
40 | Fc1cc(Cl)ccc1Nc1ccnc2cc(-c3ccc(CN4CCOCC4)o3)ccc12 | 10.8%
41 | O=C(Nc1ccc(F)c([N+](=O)[O-])c1)Nc1cc(C(F)(F)F)ccc1Cl | 4.17%
42 | CCN(CC)CCCC(C)Nc1c2cc(OC)ccc2nc2cc(Cl)c([N+](=O)[O-])cc12 (stereo not drawn) | 0.73%
43 | COc1cc(Cc2cnc(N)nc2N)cc(OC(C)C)c1OC | -0%
44 | CC(C)CCNCc1ccc(OCc2ccccc2COc2ccc(CNCCC(C)C)cc2I)c(I)c1 | 11.2%

Row | Structure (SMILES) | IFI
45 | Cn1nc(-c2ccccc2F)c2cc(C(=O)Nc3cccnc3)sc21 | -0%
46 | CCN(CC)CCCN(CCCN(CC)CC)c1cc(C)nc(Nc2ccc(Cl)cc2)n1 | 4.41%
47 | CCCc1cc(N2CCC(N3CCCC3)CC2)nc(Nc2ccc(OC)cc2)n1 | 4.76%
48 | COc1cc(C)ccc1S(=O)(=O)N1CCCCC(c2ccc(C(F)(F)F)cc2)=N1 | 0.73%
49 | COc1ccc(N2CCN(CCc3ccc(NC(=O)c4ccc([N+](=O)[O-])cc4)cc3)CC2)c(OC)c1 | 3.54%
50 | CC(C)(C)c1ccc(NC(=O)N[C@@H]2CCN(c3ccnc4ccccc34)C2)cc1 | 7.97%
51 | CCC(=O)OC(CCN(CC)CC)(c1ccccc1)c1ccccc1 | 1.41%
52 | Cc1ccc(F)cc1S(=O)(=O)Nc1ccc(CCN2CCC(N3CCCCC3)CC2)cc1 | 7.94%
53 | CCOC(=O)NC1=NC(=N)N(OCc2ccc(Cl)c(Cl)c2)C(C)(C)N1 | 0.72%
54 | COc1ccc(-n2ncc(C(=O)N3CCC4(C3)C(=O)N(c3ccccc3)c3ccccc34)c2C)cc1 (stereo not drawn) | 5.41%
55 | CC(=O)Oc1cc(OCc2ccccc2)c(OC(C)=O)c(OCc2ccccc2)c1 | 0.71%
56 | COc1ccc2nccc([C@@H](O)CN3CCC(NC(=O)/C=C/c4cccc(C)c4)CC3)c2c1 | 0.75%
57 | CCOc1cc(CNCCCCCCNCc2cc(OCC)c(OCC)c3ccccc23)c2ccccc2c1OCC | 18.8%
58 | O=C(/C=C/c1ccc(Cl)cc1)NCCCCCN1CCCC(C(=O)Nc2ccc(F)c(Cl)c2)C1 (stereo not drawn) | 5.77%
59 | N=C(N)c1ccc(C=Cc2ccc(C(=N)N)cc2O)cc1 | -0%
60 | OCCCCCCNc1nc(NCc2ccccc2-c2ccc(C(F)(F)F)cc2)nc(N2CCNCC2)n1 | 3.7%
61 | O=C(Nc1cccc(F)c1)N(Cc1ccc(-c2ccc(CN3CCNCC3)cc2)cc1)C1CCN(Cc2ccccc2)CC1 | 6.25%
62 | COc1cc(C2CCN(CCCCNC(=O)c3ccc(NC(=O)c4ccc(Cl)c(Cl)c4)cc3)CC2)ccc1OC(C)C | 8.85%
63 | c1ccc(Oc2ccc(Nc3ccnc(Nc4ccc(OCCN5CCCCC5)cc4)n3)cc2)cc1 | 5.67%
64 | CN(Cc1ccc(-c2ccc(C(F)(F)F)cc2)cc1)C(=O)Cn1c(CCc2cccc(F)c2F)cc(=O)c2ccc(OCC3CCCN3C)cc21 (stereo not drawn) | 5.15%
65 | Cc1cc(N[C@@H](Cc2ccccc2)C(=O)NCc2cccs2)nc(NCCc2ccc(F)cc2)n1 | 11.6%
66 | O=C(Nc1ccc(C(=O)Oc2cccc3ccccc23)cc1)N[C@@H](Cc1ccc(O)cc1)C(=O)NC1CCN(Cc2ccc(O)cc2)C1 (stereo partly drawn) | 8.11%

Row | Structure (SMILES) | IFI
67 | CCOC(=O)NCC(=O)Nc1cccc(-c2cccc(-c3nc4cccc(C)c4[nH]3)c2)c1 | 2.88%
68 | O=C(/C=C/c1ccc(Cl)c(Cl)c1)NCCCCCN1CCC(CCNC(=O)/C=C/c2ccc(Cl)c(Cl)c2)CC1 | 11.2%
69 | NCC1CCCN1Cc1ccc(-c2cccc(-c3nc4cc(F)ccc4[nH]3)c2)cc1 (stereo not drawn) | 7.69%
70 | CCN(CC)CCON=Cc1cc(C)c2[nH]c3ccc(OCc4ccccc4)cc3c2c1C | 3.57%
71 | CN(C)Cc1cccc(-c2cnc(N)c(-c3nc4cc(S(C)(=O)=O)ccc4[nH]3)c2)c1 | 7.41%
72 | N=C(NCc1ccccc1)Nc1nc(-c2ccc(OCCCn3ccnc3)cc2)cs1 | 2.24%
73 | Cc1nc(Nc2ccc(C)c(Cl)c2)c2c(C)noc2n1 | 2.86%
74 | O=C(Nc1cccc(C(F)(F)F)c1)NC1CCN(c2ccnc3cc(Cl)ccc23)C1 (stereo not drawn) | 7.35%
75 | O=C(Cc1ccccc1)NC(CCN1CCC(NC(=O)c2ccc(Cl)cc2)CC1)c1ccc(Cl)c(Cl)c1 (stereo not drawn) | 8.33%
76 | Nc1nc(N)c2cc(NC(=O)c3ccc(Cl)c(Cl)c3)ccc2n1 | 15.9%
77 | CCOC(=O)NC1=NC(C)(C)N(OCCCOc2ccc(C)cc2C)C(NC(=O)OCC)=N1 | 1.5%
78 | O=C(/C=C/c1ccc(Cl)c(Cl)c1)NCCCCCN1CCCN(C(=O)Nc2cc(Cl)nc(Cl)c2)CC1 | 4.76%
79 | CC(C)CCN(Cc1cncn1Cc1cccc(C(F)(F)F)c1)C(=O)c1cncc(-c2ccccc2)c1 | 5.19%
80 | COc1ccc(NC(=O)[C@H](Cc2ccccc2)Nc2cc(C)nc(NCCN3CCCC3)n2)cc1 | 4.76%
81 | COc1ccc2c(c1)Sc1ccccc1C(N1CCN(CCO)CC1)C2 (stereo not drawn) | 5.11%
82 | COCCNC(=O)c1ccc(OC2CCN(CC(C)=Cc3ccccc3)CC2)c(Cl)c1 | 2.33%
83 | CN1CCC(NCc2cccc(-c3nn(C)c4nc(NC5CCCC5)ncc34)c2)CC1 | 9.09%
84 | COc1ccc(Nc2nc(NCc3ccc(-n4ccnc4)cc3)cc(-c3ccc(OC)cc3)n2)cc1 | 0%
85 | COC(=O)C(c1ccc(NC(=O)[C@H](CC(C)C)NC(=O)OC(C)(C)C)cc1)c1ccc(NC(=O)[C@H](CC(C)C)NC(=O)OC(C)(C)C)cc1 | 0%
86 | COCCNCc1cccc(-c2ccccc2CN(C(=O)c2ccc3c(c2)OCO3)c2ccc(OC)cc2)c1 | 1.45%
87 | Cc1cc(Cl)c(S(=O)(=O)N2CCc3ccccc32)cc1OCC(=O)NC1CCCCC1 | 11.7%
88 | CN1CCCC(CN2CCN(Cc3cccc(-c4cccc(-c5nc6ccccc6[nH]5)c4)c3)CC2)C1 (stereo not drawn) | 7.04%
